# Source: the supplement of paper PMC4967469
# How the values were obtained:
# Assay in all cases: Viability of human cancer cell lines after 72 h of drug (GDSC screen)
# QL-XI-92 = compound: C=CC(=O)Nc1cc(NC(=O)c2ccc(C)c(NC(=O)c3ccno3)c2)cc(C(F)(F)F)c1 [QL-XI-92]; conditions: top dose 10.24 µM; top dose inferred
# Method: (§1)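 Human cancer cell lines in 384-well plates, medium with 10% serum, drug for 72 h over a 256-fold dose range (nine 2-fold or five 4-fold steps up to the top dose). Adherent lines were fixed and stained with the nucleic acid dye Syto60, suspension lines read with resazurin; signal relative to control wells, capped at 0 and 100%. One two-parameter sigmoid per drug and line, fitted in a mixed model over all curves with the slope shared within a line.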
# Vinorelbine = compound: CCC1=C[C@@H]2CN(C1)Cc1c([nH]c3ccccc13)[C@@](C(=O)OC)(c1cc3c(cc1OC)N(C)[C@H]1[C@@](O)(C(=O)OC)[C@H](OC(C)=O)[C@]4(CC)C=CCN5CC[C@]31[C@@H]54)C2 [Vinorelbine]; conditions: top dose 0.064 µM; top dose inferred
# Method: as §1
# AG-014699 = compound: CNCc1ccc(-c2[nH]c3cc(F)cc4c3c2CCNC4=O)cc1 [AG-014699]; conditions: top dose 5 µM; top dose inferred
# Method: as §1
# XL-184 = compound: COc1cc2nccc(Oc3ccc(NC(=O)C4(C(=O)Nc5ccc(F)cc5)CC4)cc3)c2cc1OC [XL-184]; conditions: top dose 5.12 µM; top dose inferred
# Method: as §1
# WHI-P97 = compound: COc1cc2ncnc(Nc3cc(Br)c(O)c(Br)c3)c2cc1OC [WHI-P97]; conditions: top dose 10.24 µM; top dose inferred
# Method: as §1
# Gefitinib = compound: COc1cc2ncnc(Nc3ccc(F)c(Cl)c3)c2cc1OCCCN1CCOCC1 [Gefitinib]; conditions: top dose 0.5 µM
# Method: as §1
# Phenformin = compound: N=C(N)NC(=N)NCCc1ccccc1 [Phenformin]; conditions: top dose 4000 µM; top dose inferred
# Method: as §1
# EHT 1864 = compound: O=c1cc(CN2CCOCC2)occ1OCCCCCSc1ccnc2cc(C(F)(F)F)ccc12 [EHT 1864]; conditions: top dose 10 µM; top dose inferred
# Method: as §1
# NU-7441 = compound: O=c1cc(N2CCOCC2)oc2c(-c3cccc4c3sc3ccccc34)cccc12 [NU-7441]; conditions: top dose 2 µM; top dose inferred
# Method: as §1
Cell Line,AUC (QL-XI-92),IC50 (QL-XI-92),AUC (Vinorelbine),IC50 (Vinorelbine),AUC (AG-014699),IC50 (AG-014699),AUC (XL-184),IC50 (XL-184),AUC (WHI-P97),IC50 (WHI-P97),AUC (Gefitinib),IC50 (Gefitinib),AUC (Phenformin),IC50 (Phenformin),AUC (EHT 1864),IC50 (EHT 1864),AUC (NU-7441),IC50 (NU-7441)
"CAL-27 (head and neck, adherent)",0.974,> 10.2 µM,0.69,0.0138 µM,0.97,> 5 µM,0.944,> 5.12 µM,0.907,> 10.2 µM,0.618,0.0666 µM,0.942,> 4000 µM,0.96,> 10 µM,0.935,> 2 µM
"CAL-29 (bladder, adherent)",0.985,> 10.2 µM,0.741,0.0208 µM,0.946,> 5 µM,0.965,> 5.12 µM,0.98,> 10.2 µM,0.898,> 0.5 µM,0.973,> 4000 µM,0.966,> 10 µM,0.943,> 2 µM
"CAL-33 (head and neck, adherent)",0.939,> 10.2 µM,0.547,0.00536 µM,0.955,> 5 µM,0.959,> 5.12 µM,0.965,> 10.2 µM,0.736,0.148 µM,0.887,> 4000 µM,0.951,> 10 µM,0.918,> 2 µM
"CAL-39 (cervix, adherent)",0.981,> 10.2 µM,0.518,0.00449 µM,0.964,> 5 µM,0.909,> 5.12 µM,0.925,> 10.2 µM,0.863,0.46 µM,0.968,> 4000 µM,0.953,> 10 µM,0.983,> 2 µM
"CAL-51 (breast, adherent)",0.986,> 10.2 µM,0.632,0.00875 µM,0.837,2.72 µM,0.991,> 5.12 µM,0.991,> 10.2 µM,0.975,> 0.5 µM,0.833,2110 µM,0.95,> 10 µM,0.911,> 2 µM
"CAL-72 (osteosarcoma, adherent)",0.984,> 10.2 µM,0.926,> 0.064 µM,0.976,> 5 µM,0.984,> 5.12 µM,0.984,> 10.2 µM,0.984,> 0.5 µM,0.867,> 4000 µM,0.982,> 10 µM,0.928,> 2 µM
"CAL-78 (chondrosarcoma, adherent)",0.986,> 10.2 µM,0.826,0.0465 µM,0.986,> 5 µM,0.907,> 5.12 µM,0.985,> 10.2 µM,0.986,> 0.5 µM,0.841,3380 µM,0.986,> 10 µM,0.975,> 2 µM
"CAL-120 (breast, adherent)",0.963,> 10.2 µM,0.774,0.0326 µM,0.953,> 5 µM,0.904,> 5.12 µM,0.912,> 10.2 µM,0.953,> 0.5 µM,0.823,3320 µM,0.933,> 10 µM,0.974,> 2 µM
"CCF-STTG1 (glioma, adherent)",0.951,> 10.2 µM,0.616,–,0.987,> 5 µM,0.862,4.44 µM,0.983,> 10.2 µM,0.988,> 0.5 µM,0.794,1850 µM,0.954,> 10 µM,0.978,> 2 µM
"CCK-81 (large intestine, adherent)",0.97,> 10.2 µM,0.919,> 0.064 µM,0.968,> 5 µM,0.981,> 5.12 µM,0.852,7.22 µM,0.89,> 0.5 µM,0.377,117 µM,0.901,> 10 µM,0.988,> 2 µM
"CCRF-CEM (lymphoblastic leukaemia, suspension)",0.878,7.59 µM,0.526,0.00464 µM,0.949,> 5 µM,0.91,> 5.12 µM,0.946,> 10.2 µM,0.978,> 0.5 µM,0.521,282 µM,0.964,> 10 µM,0.924,> 2 µM
"CHL-1 (melanoma, adherent)",0.892,> 10.2 µM,0.51,0.00424 µM,0.986,> 5 µM,0.857,3.79 µM,0.677,1.93 µM,0.765,0.173 µM,0.859,3030 µM,0.946,> 10 µM,0.812,0.997 µM
"CHP-212 (neuroblastoma, adherent)",0.892,> 10.2 µM,0.777,0.0237 µM,0.933,> 5 µM,0.985,> 5.12 µM,0.988,> 10.2 µM,0.985,> 0.5 µM,0.617,509 µM,0.928,> 10 µM,0.924,> 2 µM
"CHSA0108 (chondrosarcoma, adherent)",0.978,> 10.2 µM,0.71,0.0174 µM,0.967,> 5 µM,0.81,3.23 µM,0.793,5.53 µM,0.977,> 0.5 µM,0.177,21.8 µM,0.982,> 10 µM,0.95,> 2 µM
"CHSA8926 (chondrosarcoma, adherent)",0.978,> 10.2 µM,0.795,0.0448 µM,0.98,> 5 µM,0.858,> 5.12 µM,0.937,> 10.2 µM,0.98,> 0.5 µM,0.936,> 4000 µM,0.98,> 10 µM,0.971,> 2 µM
"COLO-678 (large intestine, semi-adherent)",0.982,> 10.2 µM,0.914,> 0.064 µM,0.981,> 5 µM,0.984,> 5.12 µM,0.985,> 10.2 µM,0.913,> 0.5 µM,0.966,> 4000 µM,0.962,> 10 µM,0.981,> 2 µM
"COLO-679 (melanoma, adherent)",0.955,> 10.2 µM,0.415,0.00227 µM,0.985,> 5 µM,0.985,> 5.12 µM,0.976,> 10.2 µM,0.984,> 0.5 µM,0.771,1720 µM,0.885,> 10 µM,0.943,> 2 µM
"COLO-680N (oesophagus, adherent)",0.948,> 10.2 µM,0.757,0.0259 µM,0.972,> 5 µM,0.985,> 5.12 µM,0.983,> 10.2 µM,0.967,> 0.5 µM,0.986,> 4000 µM,0.968,> 10 µM,0.974,> 2 µM
"COR-L23 (large cell lung carcinoma, adherent)",0.934,> 10.2 µM,0.621,0.00853 µM,0.927,> 5 µM,0.959,> 5.12 µM,0.96,> 10.2 µM,0.983,> 0.5 µM,0.814,2110 µM,0.973,> 10 µM,0.982,> 2 µM
"CP50-MEL-B (melanoma, adherent)",0.988,> 10.2 µM,0.824,0.0374 µM,0.988,> 5 µM,0.89,> 5.12 µM,0.965,> 10.2 µM,0.986,> 0.5 µM,0.719,1030 µM,0.956,> 10 µM,0.95,> 2 µM
"CS1 (bone, adherent)",0.838,8.08 µM,0.779,0.0294 µM,0.945,> 5 µM,0.843,4.25 µM,0.963,> 10.2 µM,0.984,> 0.5 µM,0.805,2300 µM,0.955,> 10 µM,0.973,> 2 µM
"Ca9-22 (head and neck, adherent)",0.977,> 10.2 µM,0.569,0.00609 µM,0.954,> 5 µM,0.958,> 5.12 µM,0.805,4.73 µM,0.884,0.47 µM,0.858,2900 µM,0.95,> 10 µM,0.963,> 2 µM
"Ca-Ski (cervix, adherent)",0.889,> 10.2 µM,0.697,0.0154 µM,0.972,> 5 µM,0.886,> 5.12 µM,0.95,> 10.2 µM,0.935,> 0.5 µM,0.71,1060 µM,0.983,> 10 µM,0.952,> 2 µM
"CaR-1 (large intestine, adherent)",0.971,> 10.2 µM,0.806,0.0551 µM,0.928,> 5 µM,0.965,> 5.12 µM,0.962,> 10.2 µM,0.941,> 0.5 µM,0.833,> 4000 µM,0.885,> 10 µM,0.953,> 2 µM
"Capan-2 (pancreas, adherent)",0.965,> 10.2 µM,0.77,0.0296 µM,0.985,> 5 µM,0.922,> 5.12 µM,0.913,> 10.2 µM,0.967,> 0.5 µM,0.985,> 4000 µM,0.976,> 10 µM,0.983,> 2 µM
"D-392MG (glioma, adherent)",0.877,> 10.2 µM,0.823,0.0576 µM,0.947,> 5 µM,0.802,3.66 µM,0.961,> 10.2 µM,0.954,> 0.5 µM,0.814,3230 µM,0.93,> 10 µM,0.96,> 2 µM
"D-542MG (glioma, adherent)",0.98,> 10.2 µM,0.896,> 0.064 µM,0.984,> 5 µM,0.957,> 5.12 µM,0.978,> 10.2 µM,0.982,> 0.5 µM,0.723,1250 µM,0.974,> 10 µM,0.984,> 2 µM
"DBTRG-05MG (glioma, adherent)",0.95,> 10.2 µM,0.521,0.00462 µM,0.955,> 5 µM,0.887,> 5.12 µM,0.978,> 10.2 µM,0.961,> 0.5 µM,0.639,648 µM,0.962,> 10 µM,0.978,> 2 µM
"DK-MG (glioma, adherent)",0.913,> 10.2 µM,0.975,> 0.064 µM,0.894,> 5 µM,0.655,1.07 µM,0.929,> 10.2 µM,0.973,> 0.5 µM,0.75,1910 µM,0.874,> 10 µM,0.948,> 2 µM
"DMS-114 (small cell lung carcinoma, adherent)",0.969,> 10.2 µM,0.927,> 0.064 µM,0.983,> 5 µM,0.951,> 5.12 µM,0.979,> 10.2 µM,0.963,> 0.5 µM,0.607,516 µM,0.934,> 10 µM,0.954,> 2 µM

# The IC50 comes from the fitted curve, where viability falls to half of the control; a fit beyond the top or the lowest dose is shown as a bound at that dose. AUC is the area under the same curve over the 256-fold range up to the top dose, as a fraction: 1 means no effect, lower means more sensitive. For some assays here: An inferred top dose comes from the curve model; the source does not state it.
